Results: publication PMC7736783 (Nucleic Acids Research, 2020)

T1: MTA1 ELM2-SANT domain (residues 162–354) (UniProt Q13330 162-354)
T1 construct: The tag held the complex on the FLAG resin; it was cleaved off by TEV protease before gel filtration, SEC-MALS, the Strep-Tactin step and cryo-EM; also called MTA1 wildtype; source: HEK293F, co-transfected, in lysate; co-purified (FLAG resin, TEV protease, Superose 6); not shown: His10-Flag3, N-terminal, kept
T1 sequence (looked up): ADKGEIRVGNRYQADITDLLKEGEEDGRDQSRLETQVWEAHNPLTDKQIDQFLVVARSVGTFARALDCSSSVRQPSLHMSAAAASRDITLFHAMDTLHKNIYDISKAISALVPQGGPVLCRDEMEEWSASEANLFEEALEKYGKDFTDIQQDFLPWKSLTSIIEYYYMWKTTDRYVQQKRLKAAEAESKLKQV


What was measured:
HDAC1 (residues 1–482) = target: T2, HDAC1 (residues 1–482) (UniProt Q13547); experiment: pull-down; complex co-expressed with Strep-MBD2 and untagged MBD2, purified on FLAG resin, TEV-eluted, gel filtrated (Superose 6), then applied to Strep-Tactin XT Superflow resin, washed five times with buffer C (25 mM Tris-HCl pH 7.5, 75 mM potassium acetate, 0.5 mM TCEP), resin loaded on SDS-PAGE; conditions: both partners purified
T2 construct: Two copies stand in the HDAC1:MTA1 dimer complex; also called histone deacetylase 1; source: HEK293F, co-transfected, in lysate; co-purified (FLAG resin, TEV protease, Superose 6)

[1] = target: T1, MTA1 ELM2-SANT domain (residues 162–354); experiment: SEC-MALS; peak fraction of the gel filtration-pure HDAC1:MTA1:MBD2 complex re-run on Superose 6 with refractive index and MALS detectors; conditions: both partners purified

Row | binding result (HDAC1 (residues 1–482)) | stoichiometry N [1] | Binder
1 | binds | – | Strep-MBD2 ([…]) (domain or fragment, MBD2, […]; source: HEK293F, co-transfected, in lysate; co-purified (FLAG resin, TEV protease, Superose 6)) GGSGGGGAPRREPVPFPSGSAGPGPRGPRATES[left out - about 60 residues]SKLQKNKQRLRNDPLNQNKGKPDLNTTLPIRQTASIFKQPVTKVTNHPSNKVKSDPQRMNEQPRQLFWEKRLQGLSASDVTEQIIKTMELPKGLQGVGPGSNDETLLSAVASALHTSSAPITGQVSAAVEKNPAVWLNTSQPLCKAFIVTDEDIRKQEERVQQVRKKLEEALMADILSRAADTEEMDIEMDSGDEA
2 | – | 0.5 MBD2 per MTA1 (HDAC1:MTA1:MBD2 2:2:1) | MBD2 ([…]) (domain or fragment, also called untagged MBD2; source: HEK293F, co-transfected, in lysate; co-purified (FLAG resin, TEV protease, Superose 6)) not shown
